# Assay results: PubChem BioAssay (Tox21)
# Values joined by “and” are separate entries in the source; they are usually repeats but may differ in a detail not shown here. Equal values may be shown once. The shares of active, inactive and inconclusive entries below differ from those in the screen. For some of these results: Potencies beside an inconclusive call are fits to weak or partial responses and may not hold up. More than one record can exist for a structure, and the calls need not agree. Active and inactive are the calls of the source. Unless noted, the call rests on the fitted dose curve; in most records, active means well fitted curve in the direction sought with a large enough effect in the repeat runs; inconclusive means weak or mixed curves; inactive means no such curve, though single readings can be large; an effect the other way counts as inactive or inconclusive.
# Experiments:
# [1] = qHTS assay to identify small molecule agonists of the hypoxia (HIF-1) signaling pathway (AID 1224846; active means well fitted activation curve with a large enough effect in the signal ratio in the repeat runs, not every such curve was filed as active; inconclusive means weak or mixed curves; the % refers to the signal ratio; further: potency means the concentration at half of the fitted maximal effect; on activation: on the % scale 0 is the no-effect control and ±100 the full control effect); settings: HRE-bla ME-180 cells, beta-lactamase ratio, 17 h; activation: at 76.8 µM (top of the series) unless noted
# Procedure, shortened: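 Steps: seed ME-180 HRE-bla cells (2,000/well, 0.5% dialyzed FBS); incubate 5 hrs at 37C; pin-transfer compounds or DMSO; incubate 17 hrs; add LiveBLAzer B/G substrate CCF4-AM; measure reporter activation by FRET.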
# [2] = qHTS assay to identify small molecule agonists of H2AX - cell viability counter screen (AID 1224847; calls by dose curve; further: nearly all actives have a fitted effect of over 30% in size; further: potency means the concentration at half of the fitted maximal effect)
# Procedure, shortened: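 Cells plated first: CHO-K1, 1000 per well in 10% FBS medium, incubated overnight at 37C. Then 15-point compound titration added (final DMSO 0.76%) for 3 hr. Finally CellTiter-Glo added and luminescence read.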
# [3] = qHTS assay to identify small molecule antagonists of the estrogen related receptor (ERR) signaling pathway from Tox21 library (AID 1224848); further: potency means the concentration at half of the fitted maximal effect; nearly all actives have a fitted effect of over 50% in size
# Procedure, shortened: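 Antagonist-mode screen of the Tox21 10K library in an NTP-provided ERR reporter cell line; 18 h compound exposure at 37 C, luminescence measured with ONE-Glo.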
# [4] = qHTS RealTime-Glo MT Cell Viability Assay in HEK293 cells - 32 hour (AID 1224868); further: potency means the concentration at half of the fitted maximal effect; nearly all actives have a fitted effect of over 50% in size
# Procedure, shortened: (§1)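 Assay medium contained NanoLuc luciferase plus cell-permeant prosubstrate, added with HEK293 cells at 600 cells/well. After 5 h at 37 C/5% CO2 compounds were added; plates stayed at 37 C for 40 h with serial luminescence reads.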
# [5] = qHTS RealTime-Glo MT Cell Viability Assay in HepG2 cells - 40 hour (AID 1224870); further: potency means the concentration at half of the fitted maximal effect; nearly all actives have a fitted effect of over 50% in size
# Procedure, shortened: (§2)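 Real-time viability: cells seeded at 600 per well together with NanoLuc and cell-permeant prosubstrate, compounds added after 5 h incubation. Luminescence tracked at 0, 8, 16, 24, 32 and 40 h of exposure.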
# [6] = qHTS RealTime-Glo MT Cell Viability Assay in HEK293 cells - 16 hour (AID 1224872); further: potency means the concentration at half of the fitted maximal effect; nearly all actives have a fitted effect of over 50% in size
# Procedure, shortened: as §1
# [7] = qHTS RealTime-Glo MT Cell Viability Assay in HEK293 cells - 40 hour (AID 1224874); settings: RealTime-Glo luminescence; max response: stronger effect = lower value; further: nearly all actives have a fitted effect of over 50% in size; further: potency means the concentration at half of the fitted maximal effect; on max response: on the % scale 0 is the no-effect control and ±100 the full control effect
# Procedure, shortened: (§3)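 Nonlytic bioluminescent viability monitoring. HEK293 at 600 cells/well with reagent; 5 h settle; compound transfer by pintool; plates held at 37 C and read at set time points.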
# [8] = qHTS RealTime-Glo MT Cell Viability Assay in HepG2 cells - 32 hour (AID 1224877); further: potency means the concentration at half of the fitted maximal effect; nearly all actives have a fitted effect of over 55% in size
# Procedure, shortened: (§4)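 qHTS, HepG2, 600 cells/well, RealTime-Glo (NanoLuc + prosubstrate) added with cells; 5 h preincubation; DMSO compound addition; 37 C; luminescence at 0/8/16/24/32/40 h.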
# [9] = A CellTox Green Cytotoxicity Assay to monitor cytotoxicity in HepG2 cells - 40 hour (AID 1224879); further: nearly all actives have a fitted effect of over 40% in size; further: potency means the concentration at half of the fitted maximal effect
# Procedure, shortened: (§5)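 Real-time, homogeneous cytotoxicity readout: dead-cell DNA staining by CellTox Green in HepG2 monolayers, fluorescence measured at timed intervals up to 40 h of continuous compound exposure.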
# [10] = qHTS RealTime-Glo MT Cell Viability Assay in HepG2 cells - 24 hour (AID 1224867)
# Procedure, shortened: as §4
# [11] = A CellTox Green Cytotoxicity Assay to monitor cytotoxicity in HepG2 cells - 16 hour (AID 1224876); further: nearly all actives have a fitted effect of over 45% in size; further: potency means the concentration at half of the fitted maximal effect
# Procedure, shortened: as §5
# [12] = A CellTox Green Cytotoxicity Assay to monitor cytotoxicity in HepG2 cells - 24 hour (AID 1224878); further: potency means the concentration at half of the fitted maximal effect; nearly all actives have a fitted effect of over 45% in size
# Procedure, shortened: as §5
# [13] = A CellTox Green Cytotoxicity Assay to monitor cytotoxicity in HEK293 cells - 40 hour (AID 1224871); further: potency means the concentration at half of the fitted maximal effect; nearly all actives have a fitted effect of over 45% in size
# Procedure, shortened: (§6)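 Cytotoxicity was tracked continuously in HEK293 cells by a DNA-binding dye excluded from viable cells. Compounds were transferred in DMSO 5 h after seeding; fluorescence was recorded at intervals up to 40 h.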
# [14] = A CellTox Green Cytotoxicity Assay to monitor cytotoxicity in HEK293 cells - 32 hour (AID 1224881); further: potency means the concentration at half of the fitted maximal effect; nearly all actives have a fitted effect of over 40% in size
# Procedure, shortened: as §6
# [15] = qHTS assay to identify small molecule agonists of the estrogen related receptor (ERR) signaling pathway from Tox21 library (AID 1224849; calls by dose curve; further: on the % scale 0 is the no-effect control and ±100 the full control effect; nearly all actives have a fitted effect of over 15% in size); settings: ERR reporter cell line, ONE-Glo luciferase, 18 h
# Procedure, shortened: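 Agonist signal is luciferase luminescence from an ERR reporter cell line treated 18 h at 37 C with DMSO-dissolved compounds, read 30 min after ONE-Glo addition at room temperature.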
# [16] = qHTS RealTime-Glo MT Cell Viability Assay in HepG2 cells - 8 hour (AID 1224873); further: potency means the concentration at half of the fitted maximal effect; nearly all actives have a fitted effect of over 55% in size
# Procedure, shortened: as §2
# [17] = qHTS RealTime-Glo MT Cell Viability Assay in HEK293 cells - 0 hour (AID 1224880); further: potency means the concentration at half of the fitted maximal effect; nearly all actives have a fitted effect of over 45% in size
# Procedure, shortened: as §3
# Tags describe the fitted curve by direction and shape or compound fluorescence and quenching.
structure (smiles),measurement,setting,value
CCC(C)c1cc([N+](=O)[O-])cc([N+](=O)[O-])c1OC(=O)OC(C)C (centres undefined),Potency,[1],"inconclusive: 43.6 µM [falling, partial curve]"
same,Potency,[2],"inconclusive: 113 µM [cytotoxic, single point]"
same,Potency,[3],active: 19.3 µM
same,Potency,[4],"inconclusive: 54.9 µM [cytotoxic, single point]"
same,Potency,[5],"inconclusive: 54.9 µM [falling, single point]"
same,Potency,[6],"inconclusive: 54.9 µM [cytotoxic, single point]"
same,Potency,[7],"inconclusive: 38.9 µM [cytotoxic, partial curve]"
same,Potency,[8],"inconclusive: 49 µM [cytotoxic, single point]"
same,Potency,[9],"inconclusive: 54.9 µM [activator, single point]"
CCOCC(=O)O,Potency,[1],inactive
CC(=O)[C@H]1CC[C@H]2[C@@H]3CC=C4C[C@@H](O)CC[C@]4(C)[C@H]3CC[C@]12C,Potency,[1],"inconclusive: 26.8 µM [rising, partial curve, poor fit]"
same,Potency,[2],"inconclusive: 1.79 µM [cytotoxic, single point]"
same,Potency,[3],"inconclusive: 19.3 µM [inhibitor, full curve]"
same,Potency,[4],"inconclusive: 11 µM [cytotoxic, full curve]"
same,Potency,[7],"inconclusive: 11 µM [cytotoxic, full curve]"
same,Potency,[9],inactive
CCCCN(CCCC)CCC(O)c1cc2c(Cl)cc(Cl)cc2c2cc(C(F)(F)F)ccc12 (centres undefined),Potency,[1],"inconclusive: 21.3 µM [falling, partial curve]"
same,Potency,[2],"inconclusive: 3.48 µM [cytotoxic, full curve]"
same,Potency,[10],"inconclusive: 23.9 µM [falling, partial curve]"
same,Potency,[5],"inconclusive: 23.9 µM [falling, partial curve]"
same,max response,[7],inactive: -17.9%
same,Potency,[11],inactive
same,Potency,[8],"inconclusive: 23.9 µM [cytotoxic, partial curve]"
same,Potency,[12],"inconclusive: 26.8 µM [activator, single point]"
same,Potency,[9],active: 23.9 µM
CC(C)(C)CC(C)(C)c1ccc(O)c(-n2nc3ccccc3n2)c1,Potency,[1],"inconclusive: 55.7 µM [falling, single point]"
same,Potency,[2],"inconclusive: 129 µM [cytotoxic, single point] and inconclusive: 63.5 µM [cytotoxic, partial curve]"
same,Potency,[13],"inconclusive: 55.7 µM [activator, single point]"
same,Potency,[7],active: 49.7 µM
same,Potency,[14],"inconclusive: 55.7 µM [activator, single point]"
OC1CCCC1,Potency,[1],inactive
CCCCCC(CO)CCC (centres undefined),Potency,[1],inactive
COc1cc(O)c(C(=O)c2ccccc2)cc1S(=O)(=O)O,Potency,[1],inactive
Cc1nc2ccccc2s1,Potency,[1],inactive
Oc1ccc2c(c1)Cc1ccccc1-2,Potency,[1],inactive
same,Potency,[2],"inconclusive: 127 µM [cytotoxic, single point]"
same,"activity change, positive = activation",[15]; at 92.4 µM (top of the series),inconclusive: 14%
same,Potency,[13],"inconclusive: 43.6 µM [activator, partial curve, poor fit]"
same,Potency,[11],"inconclusive: 49 µM [activator, single point]"
same,Potency,[12],"inconclusive: 43.6 µM [activator, partial curve, poor fit]"
same,Potency,[9],"inconclusive: 49 µM [activator, partial curve, poor fit]"
Nc1ccc(O)cc1,Potency,[1],inconclusive: 57.1 µM
same,Potency,[2],"inconclusive: 105 µM [cytotoxic, partial curve] and inactive"
same,"activity change, positive = activation",[15]; at 42.5 µM (top of the series),inconclusive: 28.3%
same,Potency,[10],"inconclusive: 57.1 µM [falling, single point]"
same,Potency,[5],"inconclusive: 64.1 µM [falling, single point]"
same,Potency,[13],active: 25.5 µM
same,Potency,[6],active: 40.4 µM
same,Potency,[16],active: 50.9 µM
same,Potency,[11],"inconclusive: 64.1 µM [activator, partial curve, poor fit]"
same,Potency,[8],"inconclusive: 57.1 µM [cytotoxic, single point]"
same,Potency,[9],"inconclusive: 57.1 µM [activator, single point]"
same,Potency,[17],"inconclusive: 45.4 µM [falling, partial curve]"
same,Potency,[14],"inconclusive: 50.9 µM [activator, single point]"
CC#C[C@]1(O)CC[C@H]2[C@@H]3CCC4=CC(=O)CCC4=C3[C@@H](c3ccc(N(C)C)cc3)C[C@@]21C,Potency,[1],inactive
same,Potency,[2],"inconclusive: 1.6 µM [cytotoxic, single point]"
same,Potency,[3],"inconclusive: 17.2 µM [inhibitor, full curve, poor fit]"
same,Potency,[10],"inconclusive: 24.5 µM [falling, partial curve]"
same,Potency,[4],"inconclusive: 26.8 µM [cytotoxic, partial curve, poor fit]"
same,Potency,[5],"inconclusive: 43.6 µM [falling, partial curve]"
same,Potency,[6],"inconclusive: 23.9 µM [cytotoxic, partial curve]"
same,Potency,[16],"inconclusive: 24.5 µM [falling, partial curve]"
same,Potency,[7],"active: 49 µM and inconclusive: 23.9 µM [cytotoxic, partial curve, poor fit]"
same,Potency,[8],"inconclusive: 43.6 µM [cytotoxic, partial curve] and inconclusive: 21.3 µM [cytotoxic, partial curve, poor fit]"
